Reference: PubChem BioAssay AID1468 (National Center for Advancing Translational Sciences (NCATS), 2008)
The campaign covered roughly 280,000 compounds. About 1,100 (0.39%) were called active. Inconclusive results, whose numbers are uncertain, are shown with a selection of clear calls. Calls follow the shape of the dose curve; as a rule, active = well fitted inhibition curve with a large enough effect; inconclusive = small, poorly fitted or top-dose-only effect, or effect the other way; inactive = flat fitted curve, though single readings scatter. Potencies of inconclusive entries are left out as doubtful fits.

Target: Microtubule-associated protein tau (Homo sapiens) (UniProt P10636)
Sequence of UniProt P10636 (P10636 whole entry, looked up): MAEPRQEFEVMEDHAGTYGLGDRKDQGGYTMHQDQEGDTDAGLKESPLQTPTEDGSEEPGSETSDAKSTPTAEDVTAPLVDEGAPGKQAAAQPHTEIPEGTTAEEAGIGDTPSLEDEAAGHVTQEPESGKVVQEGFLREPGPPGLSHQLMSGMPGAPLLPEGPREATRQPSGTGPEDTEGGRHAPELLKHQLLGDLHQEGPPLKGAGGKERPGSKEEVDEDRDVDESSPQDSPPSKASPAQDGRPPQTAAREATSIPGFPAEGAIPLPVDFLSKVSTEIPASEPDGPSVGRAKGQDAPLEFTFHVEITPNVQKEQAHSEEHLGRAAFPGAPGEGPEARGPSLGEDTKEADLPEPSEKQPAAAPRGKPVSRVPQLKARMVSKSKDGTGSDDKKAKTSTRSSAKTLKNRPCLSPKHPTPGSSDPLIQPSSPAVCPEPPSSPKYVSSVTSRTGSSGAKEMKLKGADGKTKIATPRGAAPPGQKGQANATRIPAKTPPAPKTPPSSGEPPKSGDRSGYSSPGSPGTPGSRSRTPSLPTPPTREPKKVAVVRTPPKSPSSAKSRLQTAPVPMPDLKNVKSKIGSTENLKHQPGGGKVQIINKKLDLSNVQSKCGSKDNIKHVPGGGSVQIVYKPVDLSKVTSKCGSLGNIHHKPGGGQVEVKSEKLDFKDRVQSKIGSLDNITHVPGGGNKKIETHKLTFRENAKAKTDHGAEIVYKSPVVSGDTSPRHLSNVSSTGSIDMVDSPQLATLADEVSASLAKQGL
Test: qHTS for Inhibitors of Tau Fibril Formation, Fluorescence Polarization; also: nearly all actives have a fitted effect of over 55% in size
Conditions: K18 P301L tau heparin fibrillization, Alexa594 FP, 6 h; series mostly up to 57.7 µM; activity, negative = inhibition: at the top concentration
Outline: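 K18 P301L tau (15 uM unlabeled/0.24 uM Alexa 594-labeled, final) + compound + heparin 20 uM final; 100 mM NaOAc pH 7; 6 hr 37 C; ThT 30 uM final added, 1 hr RT; FP ex 555/em 632 nm.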
% is scaled to controls: 0 for no effect and ±100 for the full control effect; potency is read from the fitted curve at half-maximal effect; tags tell the direction and shape of the fitted curve.

Row | Compound | activity, negative = inhibition | Potency
1 | COc1cccc(C(=O)Nc2ccc3nc(N4CCC(C)CC4)cc(C)c3c2)c1 | inactive: 6.3% | –
2 | O=C(Cc1ccc(F)cc1)Nc1ccc(S(=O)(=O)N2CCCCC2)cc1 | – | inconclusive [inhibitor, partial curve]
3 | COc1ccc(C2=CC(c3cccc(C)c3)n3nnnc3N2)cc1 (stereo not drawn) | inactive: -0.242% | –
4 | CCOC(=O)c1c(C)oc2nc(C)nc(NCCc3ccc(SC)cc3)c12 | inactive: -5.19% | –
5 | COc1cc(NC(=O)Cn2nc(-c3ccc(C)c(C)c3)ccc2=O)cc(OC)c1 | – | inconclusive [inhibitor, partial curve]
6 | CCOc1ccccc1NC1=NC2CS(=O)(=O)CC2S1 (stereo not drawn) | inactive: -5.31% | –
7 | COc1ccc(C2=C(C)C(=O)N(Cc3ccc(C(=O)Nc4cc(C)ccc4C)cc3)S2(=O)=O)cc1 | inactive: 0.67% | –
8 | O=C(c1cccs1)N1N=C(c2ccccc2)CC1c1ccccc1 (stereo not drawn) | inactive: 0.16% | –
9 | O=C(Nc1ccc(Cl)cc1)c1cc(S(=O)(=O)N2CCc3ccccc32)ccc1F | – | inconclusive [inhibitor, single point]
10 | COCC(=O)Nc1ccc(OC)c(Cl)c1 | inactive: 1.84% | –
11 | Cc1snc(SCC(=O)c2ccc(Cl)cc2)c1C#N | – | inconclusive [inhibitor, full curve, poor fit]
12 | COc1ccc(CCNC(=O)c2c(C)oc3ncn(CC(C)C)c(=O)c23)cc1OC | – | inconclusive [inhibitor, single point]
13 | N#C/C(=C\c1cc(Cl)cc(Cl)c1)c1cccnc1 | – | inconclusive [inhibitor, partial curve]
14 | O=C1/C(=C/c2cccs2)SC(=S)N1c1cccc(O)c1 | inactive: -11% | –
15 | COc1ccccc1N1CCN(C[C@@H](C(=O)NC(C)(C)C)c2ccccc2)CC1 | inactive: -13.7% | –
16 | O=C(NNC(=S)Nc1ccc(Cl)cc1Cl)c1ccc(N2CCOCC2)c([N+](=O)[O-])c1 | – | inconclusive [activator, full curve]
17 | COc1ccc(Oc2cc(C(F)(F)F)nc(N(C)C)n2)cc1 | – | inconclusive [inhibitor, single point]
18 | Cc1ccccc1OCC(=O)NC(Cc1c[nH]c2ccccc12)C(=O)O (stereo not drawn) | inactive: 0.655% | –
19 | CCOc1ccc(C(=O)Nc2cc(-c3cn4cccnc4n3)ccc2C)cc1OCC | inactive: -3.49% | –
20 | COc1ccccc1C(=O)Nc1c(C(=O)N(C)c2ccccc2)sc2nc(C)cc(C)c12 | inactive: -0.877% | –
21 | Cc1cccc(C(=O)NCc2nnc(SCC(=O)NC(C)c3ccccc3)n2C)c1 (stereo not drawn) | – | inconclusive [inhibitor, partial curve]
22 | Cc1ccc(/C=C2/SC(=S)N(CCCC(=O)Nc3ccc(O)cc3)C2=O)cc1 | inactive: 4.43% | –
23 | Cc1ccc(S(=O)(=O)OC[C@@H]2CN3[C@H](c4ccc(Br)cc4)[C@H](C)CC[C@H]3C(=O)O2)cc1 | – | inconclusive [inhibitor, single point]

Row | Compound | activity, negative = inhibition | Potency
24 | COc1cc(C(=S)NCc2ccccc2)cc(Br)c1O | – | inconclusive [inhibitor, single point]
25 | COc1ccccc1C1NC=C([N+](=O)[O-])C=C1[N+](=O)[O-] (stereo not drawn) | – | inconclusive [inhibitor, partial curve]
26 | Cc1cc(NC(=O)Cn2nc(C)n3cccc3c2=O)ccc1Br | – | inconclusive [inhibitor, partial curve]
27 | CCOc1ccc(C(=O)c2cccs2)cc1 | inactive: -4.41% | –
28 | Cc1ccc(C)c(N2CCN(c3nc4ccccc4n4c(C)nnc34)CC2)c1 | – | inconclusive [inhibitor, partial curve]
29 | Cc1ccc(NC(=O)C(c2ccccc2)N2Cc3ccccc3C2=O)cc1Cl (stereo not drawn) | – | inconclusive [inhibitor, single point]
30 | COc1ccc(CCNC(=O)C(C(=O)c2ccccc2)n2ccccc2=O)cc1OC (stereo not drawn) | inactive: -12.8% | –
31 | CCOc1ccc2nc(NC(=O)c3cnccn3)sc2c1 | inactive: 2.05% | –
32 | O=C(COc1ccc(Cl)cc1Cl)N/N=C1\CCCc2ccccc21 | – | inconclusive [inhibitor, single point]
33 | CC(C)Cn1nc(C(=O)OCC(=O)NCC(F)(F)F)c2ccccc2c1=O | inactive: -4.07% | –
34 | O=C(Nc1cc(Sc2nc3ccccc3s2)cc([N+](=O)[O-])c1)c1ccccc1F | – | inconclusive [activator, partial curve]
35 | Clc1ccc(C2=Nn3c(Cn4nnc5ccccc54)nnc3SC2)cc1 | – | inconclusive [inhibitor, single point]
36 | O=C(CN1C(=O)/C(=C/c2c(F)cccc2Cl)Oc2ccccc21)NCc1ccco1 | – | inconclusive [inhibitor, partial curve, poor fit]
37 | COc1ccc(CNS(=O)(=O)NCc2ccccc2)cc1OC | – | inconclusive [inhibitor, single point]
38 | COc1cc(O)c(C(CCN2CCN(c3ccccc3)CC2)c2ccc(N(C)C)cc2)c(OC)c1 (stereo not drawn) | – | inconclusive [activator, full curve]
39 | COC(=O)NCc1c(C)nn(-c2ccccc2)c1-n1cccc1 | inactive: -1.55% | –
40 | CC(C)(C)c1ccc(C(=O)Nc2cccc([N+](=O)[O-])c2)cc1 | – | inconclusive [inhibitor, single point]
41 | COc1ccccc1NS(=O)(=O)c1cc([N+](=O)[O-])ccc1N/N=C/c1c(C)[nH]c2ccccc12 | – | inconclusive [activator, full curve, poor fit]
42 | Cc1cccc(C2=NN(c3ccccc3)[C@@H](C(=O)N3CCOC3=O)[C@@H]2c2ccccc2)c1 | – | inconclusive [activator, single point]
43 | COc1ccc2ncc3c(-c4ccc(C)c(C)c4)nn(CC(=O)NC4CCCCC4)c3c2c1 | – | inconclusive [inhibitor, single point]
44 | Cc1ccc(NS(=O)(=O)c2ccc(NC(=O)CSc3ccc(Cl)cc3)cc2)c(C)c1 | – | inconclusive [inhibitor, partial curve]
45 | NC(=O)NC(CC(=O)NCCCc1ccccc1)c1ccc(Cl)cc1 (stereo not drawn) | inactive: -7.66% | –
46 | COCCN(CCOC)Cc1c(O)ccc2c3c(c(=O)oc12)CCC3 | – | inconclusive [inhibitor, single point]

Row | Compound | activity, negative = inhibition | Potency
47 | Cc1ccc(C)c(S(=O)(=O)NC(C)C(=O)Nc2ccc(-c3nc4ccccc4s3)cc2)c1 (stereo not drawn) | – | inconclusive [inhibitor, partial curve]
48 | CC[C@H](C)[C@@H](NC(=O)O[C@@H]1C(=O)c2cc(OC)ccc2O[C@H]1c1cccc(OC)c1)C(=O)OC | – | inconclusive [inhibitor, single point]
49 | O=C1CC(N(CCc2ccccc2)C(=S)Nc2ccccc2)C(=O)N1c1ccc(Br)cc1 (stereo not drawn) | – | active: 7.94 µM
50 | Cc1ccc(-n2c(=O)c3ccc(C(=O)NCc4ccccc4Cl)cc3n(CC(=O)Nc3cccc(F)c3)c2=O)cc1 | – | active: 15.8 µM
51 | COCCn1c(SCc2cnc(-c3ccccc3)s2)nnc1-c1ccncc1 | inactive: -4.2% | –
52 | CCOc1ccc(N2C(=O)N(Cc3c(F)cccc3Cl)c3ccccc3S2(=O)=O)cc1 | – | inconclusive [inhibitor, single point]
53 | COc1ccc(-c2cn3c(n2)sc2cc(C(=O)Nc4c(C)cccc4C)ccc23)cc1 | inactive: 6.43% | –
54 | COC(=O)c1sc(-c2ccccc2)cc1NC(=O)Nc1ccccc1Cl | – | inconclusive [inhibitor, partial curve]
55 | CCOC(=O)N1CCc2c(sc3c2c(=O)n(Cc2ccccc2)c(=O)n3CC(=O)Nc2cccc(C)c2)C1 | – | inconclusive [inhibitor, partial curve]
56 | COCCNC(=O)NC12CC3CC(CC(C3)C1)C2 | inactive: 7.6% | –
57 | CN(C)S(=O)(=O)c1ccc(C(=O)Nc2c(C(=O)Nc3ccc(F)cc3)oc3ccccc23)cc1 | – | inconclusive [inhibitor, partial curve]
58 | NS(=O)(=O)c1ccc(NC(=S)Nc2ccc(S(=O)(=O)N3CCCC3)cc2)cc1 | – | inconclusive [inhibitor, single point]
59 | COc1ccc(C(=O)n2nc(-c3ccc(Cl)cc3)nc2NCc2ccco2)cc1 | – | inconclusive [inhibitor, partial curve, poor fit]
60 | COc1cccc([C@@H]2Oc3ccc(OC)cc3C(=O)[C@H]2OC(=O)Nc2ccc(C)c(Br)c2)c1 | inactive: -8.5% | –
61 | CCCCC(=O)Nc1cc(-c2nc3cccnc3s2)ccc1C | – | inconclusive [inhibitor, partial curve, poor fit]
62 | COc1ccc(Nc2nc(Nc3ccc(OC)cc3OC)nc(N3CCN(C)CC3)n2)c(OC)c1 | – | inconclusive [activator, full curve]
63 | Cc1ccc(CNC(=O)c2ccc3c(c2)NC(=O)C(CS(=O)(=O)Cc2ccc(F)cc2)N3)cc1 (stereo not drawn) | – | inconclusive [inhibitor, partial curve]
64 | O=[N+]([O-])c1ccc(S(=O)(=O)N(CCCN2CCOCC2)Cc2cccs2)cc1 | inactive: -1.92% | –
65 | CC1=C(/C=C/C(C)=C/C=C/C(C)=C/C(=O)O)C(C)(C)CCC1 | – | inconclusive [inhibitor, single point]
66 | Cc1onc(-c2ccccc2)c1C(=O)Nc1sc2c(c1C(N)=O)CCC2 | – | inconclusive [activator, single point]
67 | CC(=O)C(C(C)=O)C1(O)C(=O)c2ccccc2C1=O | – | inconclusive [inhibitor, partial curve]
68 | Cc1cc(NC(=O)c2cc(-c3cccnc3)nc3c(C)c(C)ccc23)no1 | – | inconclusive [inhibitor, single point]
